In all, about 48,000 compounds went through this assay and about 550 (1.1%) were called active. Roughly 4% stayed inconclusive and do not appear here. Cut-off read from the data, not from the text of the source: active = potency below about 15 µM; inconclusive = mostly about 16 µM to 33 µM; inactive = weaker than that. The list shows a part of the results.
Each compound was assayed against Lysosomal acid glucosylceramidase (Homo sapiens) (UniProt P04062) (assay: Glucocerebrosidase). Details: purified enzyme, resorufin glucoside fluorescence (screen aimed at inhibitors), 20 min.
Chain of UniProt P04062 (P04062 whole entry, looked up): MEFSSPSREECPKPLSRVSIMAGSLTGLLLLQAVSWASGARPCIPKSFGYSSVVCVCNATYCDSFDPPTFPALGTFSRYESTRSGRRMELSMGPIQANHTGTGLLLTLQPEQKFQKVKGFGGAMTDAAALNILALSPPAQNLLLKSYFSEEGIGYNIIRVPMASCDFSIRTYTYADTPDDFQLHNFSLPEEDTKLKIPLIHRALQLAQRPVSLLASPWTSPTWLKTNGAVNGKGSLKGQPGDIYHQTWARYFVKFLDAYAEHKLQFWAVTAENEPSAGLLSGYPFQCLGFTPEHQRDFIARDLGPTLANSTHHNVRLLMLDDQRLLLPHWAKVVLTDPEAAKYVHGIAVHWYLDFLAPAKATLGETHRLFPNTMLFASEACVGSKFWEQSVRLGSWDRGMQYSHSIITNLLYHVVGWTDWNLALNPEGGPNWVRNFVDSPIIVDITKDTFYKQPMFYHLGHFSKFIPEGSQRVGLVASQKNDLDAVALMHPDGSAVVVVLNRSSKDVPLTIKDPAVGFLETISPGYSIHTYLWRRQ
How it was run: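 Normal human glucocerebrosidase (0.2 nM final) was assayed with resorufin β-D-glucopyranoside (30 uM final) in 50mM citric acid/KH2PO4, 10mM sodium taurocholate, 0.01% tween-20, pH 5.9. Compounds were titrated; fluorescence (Ex 548, Em 600) read after 20 min at RT.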
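Note: the screen sought inhibitors.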
Potency is the fitted concentration of half-maximal effect.

Potency, inactive:
CN(Cc1ccccc1)C(=O)c1ccc2c(c1)OCO2 > 76.9 µM
COC(=O)c1[nH]c2cc(OC)ccc2c1NC(=O)CCN1CCN(Cc2ccc3c(c2)OCO3)CC1 > 76.9 µM
CN(C)c1ccnc2sc3c(=O)n(Cc4ccccc4)cnc3c12 > 76.9 µM
O=C(Nc1ccc(-c2nc3ncccc3o2)cc1)c1ccco1 > 76.9 µM
Cc1cc(-c2nnc3n2CCCCC3)c(C)n1-c1ccccc1 > 76.9 µM
Cc1nc(Cc2nnc(SCc3nc(N)nc(Nc4ccccc4C)n3)o2)cs1 > 76.9 µM
COc1ccc(NC(=O)C2CCN(c3nc(C)nc4c3CCC4)CC2)cc1 > 76.9 µM
CN(C)S(=O)(=O)c1ccc(C(=O)Nc2ccnn2C2CCCCC2)cc1 > 76.9 µM
CCOC(=O)Cn1c(=O)c2c(nc(Br)n2CC(=O)OCC)n(C)c1=O > 76.9 µM
O=C(CCCC(=O)N(CC(=O)NC1CCCCC1)Cc1ccc2c(c1)OCO2)Nc1ccccn1 > 76.9 µM
Cc1cccc(NC(=O)C2CCCN(C(=O)Nc3ccccc3)C2)c1C (stereo unspecified) > 76.9 µM
CN(C(=O)c1ccc(NC(=O)c2cnccn2)cc1)C1CCCCC1 > 76.9 µM
CC1CN(C(=O)C(C)N2C(=O)c3ccccc3C2=O)CC(C)O1 (stereo unspecified) > 76.9 µM
O=C(Nc1ccc(Cl)cc1)c1cc2nc(-c3ccco3)cc(C(F)(F)F)n2n1 > 76.9 µM
O=C(CCS(=O)(=O)c1cccc2nsnc12)N1CCN(Cc2ccc3c(c2)OCO3)CC1 > 76.9 µM
CCN1C(=O)/C(=C2/Sc3ccc(OC)cc3N2C)SC1=Nc1cccc(O)c1 > 76.9 µM
CCCC1C(C#N)=C(N)Oc2cc(C)n(C)c(=O)c21 (stereo unspecified) > 76.9 µM
CCCn1c(SCC(=O)Nc2ccc3c(c2)OCO3)nc2c1c(=O)n(C)c(=O)n2C > 76.9 µM
COc1ccccc1C1CC(=O)Nc2cc3c(cc21)OCCO3 (stereo unspecified) > 76.9 µM
Cn1c(SCc2nnc(-c3ccc(F)cc3)o2)nnc1C1COc2ccccc2O1 (stereo unspecified) > 76.9 µM
COCCNC(=O)C(OC(=O)c1cccs1)c1ccccc1 (stereo unspecified) > 76.9 µM
CC(C)CCNC(=O)C(c1cccs1)N(CC1CCCO1)C(=O)Cn1nnc2ccccc21 (stereo unspecified) > 76.9 µM
CCn1c(SCCC(=O)O)nnc1-c1cccnc1 > 76.9 µM
Cc1ccc(S(=O)(=O)N(C)Cc2nc(-c3ccncc3)no2)cc1 > 76.9 µM
Cn1c(=O)c2c(nc(NCc3ccccc3)n2CCCc2ccccc2)n(C)c1=O > 76.9 µM
CC(=O)Nc1ccc(NC(=O)CNS(=O)(=O)c2ccc(C)cc2)cc1 > 76.9 µM
CCCc1nc2c3cnn(-c4cccc(Cl)c4)c3ncn2n1 > 76.9 µM
COC(=O)c1[nH]c2ccccc2c1NC(=O)CN1CCN(C/C=C/c2ccccc2)CC1
c1ccc(-n2nnnc2SCc2cn3cccnc3n2)cc1 > 76.9 µM
O=C(Nc1ccn(C2CC(OC(=O)c3ccccc3)C(CO)O2)c(=O)n1)c1ccccc1 (stereo unspecified) > 76.9 µM
Cn1c2ccccc2c(=O)n2c(=O)c3ccccc3cc12 > 76.9 µM
COC(=O)c1cc(-c2c(C)nn(-c3ccccc3)c2C)n[nH]1 > 76.9 µM
COc1ccc(OC)c(NC(=O)CSCc2cnn(-c3ccccc3)c2-n2cccc2)c1 > 76.9 µM
CC1=CC(C)(C)N2C(=O)C3(C(C#N)=C(N)OC4=C3C(=O)CC(C)(C)C4)c3cccc1c32 (stereo unspecified) > 76.9 µM
COc1ccc(C2NC(C(=O)O)CS2)cc1COCC(F)(F)F (stereo unspecified) > 76.9 µM
CCOC(=O)c1c(CN2CCN(C)CC2)oc2ccc(O)cc12 > 76.9 µM
O=C(NCc1ccco1)C(c1ccccc1)N(CC1CCCO1)C(=O)Cn1nnc2ccccc21 (stereo unspecified) > 76.9 µM
O=C(COc1ccccc1Cl)N1CCN(c2ccc(F)cc2)CC1 > 76.9 µM
CS(=O)(=O)N1CCc2cc(C(=O)N3CCOCC3)ccc21 > 76.9 µM
Cc1ccccc1OCc1nc(-c2ccccc2)no1 > 76.9 µM
O=C(NCc1ccccc1)C1C2C=CC3(CN(Cc4cccnc4)C(=O)C13)O2 (stereo unspecified) > 76.9 µM
O=C(c1ccccc1)c1nc[nH]c1C(=O)Nc1ccccn1 > 76.9 µM
CCN(C(=O)COC(=O)c1cnc(C)cn1)C1CCCCC1 > 76.9 µM
Cc1ccc2cc(CN(Cc3cccs3)Cc3nnnn3CC3CCCO3)c(=O)[nH]c2c1C (stereo unspecified) > 76.9 µM
O=C(NC1CC1)C1C2C3C4CC5C3C5C4C12 (stereo unspecified) > 76.9 µM
CCC(OC(=O)c1nsc(Cl)c1Cl)C(=O)NCc1ccco1 (stereo unspecified) > 76.9 µM
COC(=O)c1ccc(CSc2nnc(Nc3ccccc3OC)s2)o1 > 76.9 µM
Cc1cc(NC(=O)c2ccccc2-c2ccccc2C(=O)O)no1 > 76.9 µM
Cc1ccc(-n2c(C)cc(C(=O)OCC(=O)N(C)C3CCS(=O)(=O)C3)c2C)cc1 (stereo unspecified) > 76.9 µM
CCOCC(=O)Nc1nc2ccc(S(C)(=O)=O)cc2s1 > 76.9 µM
Cc1nnc(NC(=O)CSc2ccccn2)s1 > 76.9 µM
Cc1c(NC(=O)CSc2ccc3c(c2)OCCO3)c(=O)n(-c2ccccc2)n1C > 76.9 µM
Cc1cccc2nc(CSc3nnnn3-c3ccccc3)cn12 > 76.9 µM
CN(C)S(=O)(=O)c1cccc(-c2nnc(SCc3cc(Cl)cc4c3OCOC4)n2N)c1 > 76.9 µM
CC(C)(C)c1ccc(OCCn2ccccc2=O)cc1 > 76.9 µM
CCc1noc(C)c1C(=O)N1CC(C)OC(C)C1 (stereo unspecified) > 76.9 µM

From PubChem BioAssay AID360 (National Center for Advancing Translational Sciences (NCATS), 2006)
